Test results: PMC4336329 (PLoS ONE, 2015)
The whole screen tested about 310,000 compounds, of which about 14,000 (4.5%) showed an effect of 50% or more. Effects have a minus sign here. Some of the results follow.

These compounds were tested against human ether-à-go-go-related gene (hERG) potassium channel (human, UniProt Q12809) (assay: primary screen, population patch clamp on CHO cells stably expressing hERG).
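Also: peak tail current of the secondary pulse compared with the same well before compound.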

human ether-à-go-go-related gene (hERG) potassium channel, sequence (Q12809 whole entry, looked up): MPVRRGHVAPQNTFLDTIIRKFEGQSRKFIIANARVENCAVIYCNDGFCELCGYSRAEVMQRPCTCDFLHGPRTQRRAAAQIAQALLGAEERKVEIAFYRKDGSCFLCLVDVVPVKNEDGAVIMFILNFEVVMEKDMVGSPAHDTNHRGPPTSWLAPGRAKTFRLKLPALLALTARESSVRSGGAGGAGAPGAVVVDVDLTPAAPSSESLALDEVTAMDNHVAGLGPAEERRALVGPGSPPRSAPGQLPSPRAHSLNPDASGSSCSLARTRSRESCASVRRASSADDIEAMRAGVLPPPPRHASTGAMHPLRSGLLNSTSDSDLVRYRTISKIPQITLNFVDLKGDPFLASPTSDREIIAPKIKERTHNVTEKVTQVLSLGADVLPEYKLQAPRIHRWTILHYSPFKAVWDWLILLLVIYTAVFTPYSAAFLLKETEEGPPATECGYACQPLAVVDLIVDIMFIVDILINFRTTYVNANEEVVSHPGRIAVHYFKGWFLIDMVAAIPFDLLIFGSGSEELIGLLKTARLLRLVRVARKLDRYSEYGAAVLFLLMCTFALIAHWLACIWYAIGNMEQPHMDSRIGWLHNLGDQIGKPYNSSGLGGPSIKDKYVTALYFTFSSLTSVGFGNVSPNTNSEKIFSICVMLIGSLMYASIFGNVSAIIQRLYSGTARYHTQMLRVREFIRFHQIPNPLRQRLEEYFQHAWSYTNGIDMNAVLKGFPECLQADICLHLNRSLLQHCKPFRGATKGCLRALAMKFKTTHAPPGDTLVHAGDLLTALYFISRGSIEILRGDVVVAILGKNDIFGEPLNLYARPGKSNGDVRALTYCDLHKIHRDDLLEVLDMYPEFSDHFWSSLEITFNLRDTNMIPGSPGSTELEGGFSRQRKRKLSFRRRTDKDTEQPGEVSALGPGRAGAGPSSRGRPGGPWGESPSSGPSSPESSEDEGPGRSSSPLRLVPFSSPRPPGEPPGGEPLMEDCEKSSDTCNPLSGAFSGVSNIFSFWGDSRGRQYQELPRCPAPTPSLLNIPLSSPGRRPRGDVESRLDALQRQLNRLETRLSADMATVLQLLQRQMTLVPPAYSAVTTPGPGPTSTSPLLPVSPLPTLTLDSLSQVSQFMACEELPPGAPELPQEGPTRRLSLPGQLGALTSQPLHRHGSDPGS

SMILES	hERG current change (%, negative = inhibition) at 10uM
COc1cc(/C=N/NS(=O)(=O)c2ccc3ccccc3c2)ccc1OCc1ccc(C(=O)O)cc1	24.8%
CCOC(=O)C(C)/C(C)=N/NC(=O)c1cc2ccccc2cc1O (stereo not shown)	8.33%
CC(C)(C)S(=O)(=O)c1cnc2c(-c3ccc(F)cc3)cnn2c1N	-2.82%
COc1ccc(CCNC(=O)c2sc3ccccc3c2Cl)cc1OC	-5.82%
Cc1ccc(N(C(=O)c2snc(C(N)=O)c2N)C(C(=O)NCC2CCCO2)c2c[nH]c3ccccc23)cc1 (stereo not shown)	-6.36%
Cc1ccc([C@@H]2[C@@H]3C(=O)N(C)C(=O)[C@@H]3[C@]3(Cc4ccccc4)C(=O)N(CCO)CC(=O)N23)o1	0.221%
CN(CCOc1ccccc1)C(=O)C1CCC(=O)N(CCc2ccc(Cl)cc2)C1 (stereo not shown)	-84.9%
CC(C)OP(=O)(c1ccc(N(C)C)cc1)C(O)c1cccnc1 (stereo not shown)	13.1%
CCOC(=O)Cc1c(C)[nH]n(-c2ccccc2)c1=O	11.6%
COc1ccc(CNC(=O)CN2C(=O)C3CCCN3c3ncc(Cl)cc32)cc1 (stereo not shown)	-29%
COc1ccc(C=O)cc1COc1ccc(Cl)cc1[N+](=O)[O-]	-0.414%
COc1ccc(/C(=N/OC(C)=O)c2nccc3cc(OC)c(OC)cc23)cc1OC	18.6%
COC(=O)c1cc(C#N)c(=O)[nH]c1C	20.3%
Cc1nn(C)c(N)c1C(O)(c1nccn1C)C(F)(F)F (stereo not shown)	6.36%
CCC[C@@H]1C[C@@]1(CCC)[C@@H](NC(=O)c1ccccc1)c1ccc(C(=O)OC)cc1	26.1%
O=C(CSc1nnnn1C1CCCCC1)N1c2ccccc2Sc2ccccc21	-4.31%
CC(=O)Nc1sc(NC(=O)c2ccc([N+](=O)[O-])cc2)nc1-c1cccs1	-0.605%
COc1ccc(CCN(C)CCC(=O)Nc2cccc(C)c2)cc1OC.Cl	-65.8%
CC(Sc1nc(-c2ccccc2)cc(C(F)(F)F)n1)C(=O)NCCN1CCOCC1 (stereo not shown)	-12.1%
Cc1ccc(C(=O)c2cc3ccccc3o2)cc1	5.76%
CN(Cc1cccc(F)c1)C(=O)c1ccccc1Sc1ccccc1C#N	-12.3%
COc1cc(OC)c(/C=N/NC(=O)c2ccc(Cn3nc([N+](=O)[O-])cc3C)cc2)c(OC)c1	-37.1%

SMILES	hERG current change (%, negative = inhibition) at 10uM
CC(=O)c1ccc(S(=O)(=O)Nc2cccc(-c3ccc(N4CCOCC4)nn3)c2)cc1	-20%
Cc1ccccc1NC(=O)/C(=C\c1cccs1)NC(=O)c1ccco1	-7.17%
Oc1ccc(NCc2ccccc2OCc2ccccc2F)cc1	-5.12%
O=C(NC1CCCCC1)N1CCN(C(c2ccccc2)c2ccccc2)CC1	-8.83%
CCOC(=O)C1CCN(C(C(=O)NC2CCCCC2)c2ccc(OC)cc2)CC1 (stereo not shown)	1.79%
COc1ccccc1CN(Cc1nc2ccccc2c(=O)[nH]1)C(=O)Nc1ccccc1	-7.21%
CC(C)(C)c1nc(SCC(=O)NNC(=O)c2ccccc2)c2ccccc2n1	-1.13%
O=C(Nc1ccc2c(c1)OCO2)O[C@@H]1C[C@H]2CCC(=O)N3CC[C@@H](C1)[C@@H]23	31.3%
CC1CCCCN1CCNC(=O)CCc1nnc2n(Cc3ccccc3)c(=O)c3ccccc3n12 (stereo not shown)	-51.6%
Cc1ccc(NC(=O)COC(=O)CNC(=O)c2ccc3ccccc3c2)c([N+](=O)[O-])c1	-2.69%
Cc1cnc(C(=O)Nc2ccc(F)c(F)c2)cn1	8.1%
CCOC(=O)C1C(c2cccnc2)NC(=O)NC1(O)C(F)(F)F (stereo not shown)	10.5%
Cc1ccc(NC(=O)CCNC(=O)c2ccc(Cl)cc2)nc1	7.38%
O=C(NCCc1ccccc1)[C@@H]1CC=C[C@@H]2CCN(Cc3ccccc3)C(=O)[C@@H]21	-1.71%
CCCCN(C(=O)c1ccc(N2CCCC2=O)cc1)c1c(N)n(Cc2ccccc2)c(=O)[nH]c1=O	7.41%
O=C(Nc1nnc(-c2ccccc2Cl)s1)c1ccccc1F	10.9%
CCNC(=S)N/N=C/c1cccc(OCc2c(F)cccc2Cl)c1	0.567%
COc1cc(SC)ccc1C(=O)NCCNC(=O)c1nonc1N	-6.81%
O=[N+]([O-])c1ccc(N2CCN(c3ccc(Cl)nn3)CC2)cc1NC1CC1	-9.76%
Cc1cc(N2CCCC2)nc2ccc(NC(=S)NCCCN3CCC(C)CC3)cc12	-29.6%
CCCOC1CCCN(C(=O)c2ccc(OC3CCN(C(=O)CCOC)CC3)cc2)C1 (stereo not shown)	10.1%
C=CCn1c(SCC(=O)N2CC(=O)Nc3ccccc32)nc2scc(-c3cccs3)c2c1=O	2.42%

SMILES	hERG current change (%, negative = inhibition) at 10uM
C/C(N)=C(/C#N)C(=O)CSc1cc(Cl)ccc1Cl	-2.07%
CCOc1cc([C@@H]2C[C@H]3CN(c4ccccc4)C(=O)[C@]34CCCN24)ccc1OC	-10.4%
COCCCNC(=S)N1CCCN(c2nc3c(C)c(C)ccc3cc2C#N)CC1	-24.7%
O=C(NN(C(=O)c1ccccc1)c1ccccc1)c1ccccc1	-27.8%
CCOC(=O)C1CCN(Cc2cnc(Oc3ccc(N)cc3)s2)CC1	-10.6%
COC(=O)C(NC(=O)CN1C(=O)c2ccccc2C1=O)c1ccc(O)c(OC)c1 (stereo not shown)	4.53%
Cc1sc(NC(=O)CN(C(=O)c2ccccc2F)C2CCCC2)c(C(N)=O)c1C	-20.8%
Cc1nc(SC(C)C(=O)Nc2cccc(C(F)(F)F)c2)c2c(C)c(C(=O)O)sc2n1 (stereo not shown)	9.27%
Cc1cccc(C)c1N(Cc1ccccc1F)S(C)(=O)=O	13.5%
CCOc1ccccc1N1Cc2cc(C)c(C)cc2C1	-34.2%
CCn1nnnc1SCC(=O)NCc1ccc2c(c1)OCO2	8.16%
N#Cc1ccc(COc2cccc3cccnc23)cc1	-41%
CCOCc1nnc(NC(=O)CCc2ccccc2)s1	8.85%
CN(c1ccccc1)S(=O)(=O)c1cccc(NC(=O)Cc2c(F)cccc2Cl)c1	-7.15%
O=C(Nc1ccc(F)cc1F)c1cc(-c2ccc3c(c2)OCO3)on1	-13.5%
CC(=O)NC(=S)Nc1sc2c(c1C(N)=O)CCC(C)C2 (stereo not shown)	0.576%
CC(C)CCNC1=NCCCCC1	-3.32%
CCOC(=O)C1CCN(C(=O)Nc2c(-c3ccccc3)noc2C)CC1	20.6%
O=c1c(Cc2ccc(Cl)cc2Cl)c(O)ccn1CCCN1CCOCC1	-6.58%
O=C(Nc1ccccc1)C(=O)Nc1cccnc1	22.8%
Cc1nc2nc(C)c(CCC(=O)N3CCN(c4ccccn4)CC3)c(C)n2n1	-46.1%
COc1ccc(C(=O)N2CCN(c3ccccc3Cl)CC2)cc1S(=O)(=O)NC1CC1	-32.7%

SMILES	hERG current change (%, negative = inhibition) at 10uM
COc1ccccc1NS(=O)(=O)c1cccc(C(=O)N/N=C/c2ccc(OCC(=O)O)cc2)c1	17.1%
Cc1ccc(S(=O)(=O)C2(C(=O)N3CCCCC3C)CC2)cc1 (stereo not shown)	1.58%
CC(C)n1c(SCC(=O)NC2CC2)nnc1C1CC1	8.5%
CC1CC(C)CN(C(=O)c2ccncc2)C1 (stereo not shown)	10.1%
CCN1CCN(c2cc(N3CCc4ccccc4C3)c(F)cc2[N+](=O)[O-])CC1	-51.9%
CCc1ccccc1NC(=O)c1cccs1	-2.58%
O=[N+]([O-])c1cccc(Cl)c1CSc1ccccn1	6.81%
CCCn1c(=O)c(C(=O)Nc2c(C)n(C)n(-c3ccccc3)c2=O)c(O)c2ccccc21	-12%
S=C(NCC1CCCO1)Nc1ccc(Cl)cc1 (stereo not shown)	27.4%
CCOC(=O)N1CCN(S(=O)(=O)N2CCCC(C(=O)NCc3ccccc3OC)C2)CC1 (stereo not shown)	-38%
CC(=O)N1CC=C2C(C#N)=C(N)C(C#N)(C#N)C(CCc3ccccc3)C2C1 (stereo not shown)	-27.6%
Cc1ccc(NS(=O)(=O)c2cc(NC(=O)c3ccc4c(c3)NC(=O)CS4)ccc2C)c(C)c1	12%
COc1ccc(-c2nn(-c3ccccc3)cc2C2CC(c3cccs3)=NN2C(=O)CCC(=O)O)cc1 (stereo not shown)	30.4%
CC(OCC(O)CN(C)Cc1nc2ccccc2c(=O)[nH]1)c1ccc(Cl)cc1 (stereo not shown)	-34%
CCCNC(=O)N1[C@H]2CC[C@@H]1C(C(=O)OC)=C(c1cccc(Cl)c1)C2	42.8%
Cc1c(OC(C)C(=O)NCCCN2CCOCC2)ccc2c3c(c(=O)oc12)CCC3 (stereo not shown)	13.6%
CNC(=S)Nc1ccc(N2CCN(c3ccc(C(F)(F)F)cn3)CC2)nc1	6.29%
N#CCCN=C(NS(=O)(=O)c1ccccc1)c1ccccc1	-2.03%
CCN(CC)CCn1c2c(c(SCC(=O)Nc3cc(OC)cc(OC)c3)nc1=O)CCC2	-70.1%
